{
  "source": "paper PMC4336329",
  "about": "(PLoS ONE, 2015)",
  "note": "The whole screen tested about 310,000 compounds, of which about 2,200 (0.71%) showed an effect of 50% or more. The effect is printed as a negative number. The list shows a part of the results.",
  "data": [
    {"target": "human ether-à-go-go-related gene (hERG) potassium channel (human, UniProt Q12809)", "sequence (Q12809 whole entry, looked up)": "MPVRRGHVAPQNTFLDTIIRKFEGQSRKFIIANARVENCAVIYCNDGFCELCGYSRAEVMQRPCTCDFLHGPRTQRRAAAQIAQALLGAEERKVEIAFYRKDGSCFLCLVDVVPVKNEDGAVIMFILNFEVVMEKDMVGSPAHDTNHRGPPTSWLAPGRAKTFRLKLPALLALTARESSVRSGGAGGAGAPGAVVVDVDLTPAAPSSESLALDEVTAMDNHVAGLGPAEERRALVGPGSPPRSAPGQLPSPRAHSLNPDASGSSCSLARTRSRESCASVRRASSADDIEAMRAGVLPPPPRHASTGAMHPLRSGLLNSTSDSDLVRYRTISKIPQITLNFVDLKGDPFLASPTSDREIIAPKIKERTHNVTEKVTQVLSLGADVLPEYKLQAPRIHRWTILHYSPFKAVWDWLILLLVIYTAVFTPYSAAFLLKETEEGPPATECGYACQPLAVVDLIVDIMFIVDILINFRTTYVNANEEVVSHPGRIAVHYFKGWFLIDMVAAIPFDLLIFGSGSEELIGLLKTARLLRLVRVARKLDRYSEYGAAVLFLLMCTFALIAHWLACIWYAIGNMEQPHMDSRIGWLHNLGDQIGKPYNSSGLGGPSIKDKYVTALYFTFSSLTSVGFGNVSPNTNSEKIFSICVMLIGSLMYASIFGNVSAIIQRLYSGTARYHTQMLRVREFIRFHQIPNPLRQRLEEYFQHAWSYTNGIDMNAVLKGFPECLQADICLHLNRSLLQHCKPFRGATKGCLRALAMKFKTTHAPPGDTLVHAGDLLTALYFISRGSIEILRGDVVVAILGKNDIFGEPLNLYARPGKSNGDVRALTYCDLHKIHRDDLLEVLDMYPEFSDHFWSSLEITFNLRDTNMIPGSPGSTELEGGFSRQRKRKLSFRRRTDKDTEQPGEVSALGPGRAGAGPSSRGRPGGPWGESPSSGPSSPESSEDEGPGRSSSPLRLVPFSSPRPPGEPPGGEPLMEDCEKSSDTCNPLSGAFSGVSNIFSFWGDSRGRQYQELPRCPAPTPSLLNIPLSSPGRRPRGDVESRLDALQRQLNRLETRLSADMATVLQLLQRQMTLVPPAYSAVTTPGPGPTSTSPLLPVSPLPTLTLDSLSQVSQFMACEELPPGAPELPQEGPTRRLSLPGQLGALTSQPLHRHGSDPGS", "test": "primary screen, population patch clamp on CHO cells stably expressing hERG", "units": {"hERG current change (%, negative = inhibition) at 1uM": "%"}, "values": [
      {"smiles": "COc1cc(NS(=O)(=O)c2c(C)[nH]c(C)c2C(=O)N2CCCC2)cc(OC)c1OC", "hERG current change (%, negative = inhibition) at 1uM": 5.12},
      {"smiles": "COC(=O)c1ccc(CNC(=O)CNC(=O)c2sc3ccccc3c2Cl)cc1", "hERG current change (%, negative = inhibition) at 1uM": 4.38},
      {"smiles": "CC(=O)Nc1nc2cc([N+](=O)[O-])ccc2s1", "hERG current change (%, negative = inhibition) at 1uM": 9.96},
      {"smiles": "CN(C)/C=N/c1cc(=O)[nH]c(=O)n1CC1CC1", "hERG current change (%, negative = inhibition) at 1uM": 17.1},
      {"smiles": "COCCN1Cc2cccc(C(=O)NCCc3ccccc3)c2C1=O", "hERG current change (%, negative = inhibition) at 1uM": 14.3},
      {"smiles": "CCCC1=NN(C(=O)Cc2ccc(OC)cc2)C(O)(C(F)(F)F)C1", "note": "(centres unmarked)", "hERG current change (%, negative = inhibition) at 1uM": 1.22},
      {"smiles": "COC(=O)c1c(NC(=O)CSc2nc3ccccc3c(=O)n2-c2ccccc2)sc(C)c1C", "hERG current change (%, negative = inhibition) at 1uM": 5.22},
      {"smiles": "COc1ccc(N2C(=O)C3CCCN3C2c2ccccc2OC)cc1", "note": "(centres unmarked)", "hERG current change (%, negative = inhibition) at 1uM": 21},
      {"smiles": "Cc1cc2c(cc1S(=O)(=O)NCCc1ccccc1)NC(=O)CO2", "hERG current change (%, negative = inhibition) at 1uM": 0.117},
      {"smiles": "CN(C)CCN(Cc1ccccc1)c1nccc(N(C)C)c1C#N.O.O=C(O)C(=O)O", "hERG current change (%, negative = inhibition) at 1uM": -0.633},
      {"smiles": "COc1cc2cc(C(=O)N(C)C3CCS(=O)(=O)C3)[nH]c2cc1OC", "note": "(centres unmarked)", "hERG current change (%, negative = inhibition) at 1uM": 7.1},
      {"smiles": "CCCCn1c(N)c(N(CC(C)C)C(=O)C2CCN(S(=O)(=O)c3ccc(Cl)cc3)CC2)c(=O)[nH]c1=O", "hERG current change (%, negative = inhibition) at 1uM": 14.4},
      {"smiles": "CC(C)CCN1CCN(C2CCN(c3ccccc3)CC2)CC1CCO", "note": "(centres unmarked)", "hERG current change (%, negative = inhibition) at 1uM": -5.89},
      {"smiles": "CCCCCN(C(=O)CCC(=O)OCCOc1cccc(C)c1)c1c(N)n(CCCC)c(=O)[nH]c1=O", "hERG current change (%, negative = inhibition) at 1uM": 3.85},
      {"smiles": "COc1cccc(CN2CCNC(=O)C2CC(=O)NC2CCCCC2)c1OC", "note": "(centres unmarked)", "hERG current change (%, negative = inhibition) at 1uM": 12.4},
      {"smiles": "Cc1cc(Oc2nc3c(C)cccn3c(=O)c2/C=C(\\C#N)S(=O)(=O)c2ccccc2)ccc1Cl", "hERG current change (%, negative = inhibition) at 1uM": 3.25},
      {"smiles": "Cc1ccc2c(c1)cc(CN(Cc1cccnc1)C(=O)c1ccccc1)c1nnnn12", "hERG current change (%, negative = inhibition) at 1uM": -28.4},
      {"smiles": "CC(C)N(C(=O)CS(=O)(=O)c1ccc(Cl)c(Cl)c1)C(C)C", "hERG current change (%, negative = inhibition) at 1uM": 4.89},
      {"smiles": "CN(C)C(=S)NC(=O)C(c1ccccc1)c1ccccc1", "hERG current change (%, negative = inhibition) at 1uM": 3.66},
      {"smiles": "CCCCOc1ccccc1NC(=O)Cn1c(-c2nonc2N)nc2ccccc21", "hERG current change (%, negative = inhibition) at 1uM": 7.21},
      {"smiles": "CCOC(=O)c1sc(/S(C)=N\\S(=O)(=O)c2cccc(Cl)c2)c2c1CCC=C2", "note": "(centres unmarked)", "hERG current change (%, negative = inhibition) at 1uM": 2.62},
      {"smiles": "CCNc1nc(OC)nc(Oc2ccc(C(=O)OC)cc2)n1", "hERG current change (%, negative = inhibition) at 1uM": 13.2},
      {"smiles": "CCN(CC)S(=O)(=O)c1ccc(OC)c(NC(=O)c2cccc([N+](=O)[O-])c2C)c1", "hERG current change (%, negative = inhibition) at 1uM": 0.67},
      {"smiles": "CC(=O)N1CCC(N(C(=O)Nc2ccc(F)cc2)C2CCCC2)CC1", "hERG current change (%, negative = inhibition) at 1uM": 14.3},
      {"smiles": "O=S(=O)(c1ccc2ccccc2c1)N(CC1CO1)c1ccccc1", "note": "(centres unmarked)", "hERG current change (%, negative = inhibition) at 1uM": 8.85},
      {"smiles": "COc1ccc(NC(=O)c2cc(S(=O)(=O)N3CCOCC3)cn2C)c(OC)c1", "hERG current change (%, negative = inhibition) at 1uM": 9.62},
      {"smiles": "COc1ccc(C(=O)Nc2ccc(Cn3ccnc3)cc2)cc1OC", "hERG current change (%, negative = inhibition) at 1uM": 12.2},
      {"smiles": "COC(=O)c1ccc(C)c(NC(=O)COC(=O)C2CC3CCCC(C2)C3=O)c1", "note": "(centres unmarked)", "hERG current change (%, negative = inhibition) at 1uM": 2.4},
      {"smiles": "CC(=O)N(C(C)=O)n1c(/C=C/c2cccc([N+](=O)[O-])c2)nc2ccccc2c1=O", "hERG current change (%, negative = inhibition) at 1uM": 10.9},
      {"smiles": "Cl.O=C(c1ccco1)N1CCN(CCCCOc2cccc3ccccc23)CC1", "hERG current change (%, negative = inhibition) at 1uM": 6.14},
      {"smiles": "COc1ccccc1OCC(=O)N1CCCC(N2CCN(c3ccc(F)cc3)CC2)C1", "note": "(centres unmarked)", "hERG current change (%, negative = inhibition) at 1uM": 4.57},
      {"smiles": "N#Cc1c(Cl)nc(Cl)c2c1CCN(Cc1ccccc1)C2", "hERG current change (%, negative = inhibition) at 1uM": 7.79},
      {"smiles": "COc1ccc(Br)cc1/C=N/NC(=O)C(c1ccncc1)N1CCOCC1", "note": "(centres unmarked)", "hERG current change (%, negative = inhibition) at 1uM": 15.7},
      {"smiles": "O=C1CCN(S(=O)(=O)c2ccc(Br)cc2)CCN1", "hERG current change (%, negative = inhibition) at 1uM": 9.41},
      {"smiles": "Cc1ccc(NC(=O)O/N=C/c2ccc(F)cc2)cc1", "hERG current change (%, negative = inhibition) at 1uM": 8.72},
      {"smiles": "CC(C)Nc1ccc(Nc2ccnc3cc4ccccc4cc23)cc1", "hERG current change (%, negative = inhibition) at 1uM": -1.76},
      {"smiles": "COC(=O)Cn1c(N2CCCC2)nc2c1c(=O)n(C)c(=O)n2C", "hERG current change (%, negative = inhibition) at 1uM": 8.15},
      {"smiles": "Cc1ccc(S(=O)(=O)N(C)C)cc1NC(=S)N1CCc2ccccc21", "hERG current change (%, negative = inhibition) at 1uM": 10.3},
      {"smiles": "Cc1cc(NCCCOC(C)C)n2c(nc3ccccc32)c1C#N", "hERG current change (%, negative = inhibition) at 1uM": 5.2},
      {"smiles": "CSc1ccccc1C(=O)OCC(=O)N1CCCC1=O", "hERG current change (%, negative = inhibition) at 1uM": -4.4},
      {"smiles": "CN(C)CCNC(=S)Nc1cccc(Cl)c1", "hERG current change (%, negative = inhibition) at 1uM": 3.05},
      {"smiles": "Cc1ccc(NC(=S)N(CCN2CCCCC2)Cc2ccco2)cc1C", "hERG current change (%, negative = inhibition) at 1uM": -6.21},
      {"smiles": "CNC(=S)N/N=C/c1ccccc1OCC(=O)O", "hERG current change (%, negative = inhibition) at 1uM": 6.65},
      {"smiles": "O=c1[nH]cnc2scc(-c3ccc(-c4ccccc4)cc3)c12", "hERG current change (%, negative = inhibition) at 1uM": 19.7}
    ]}
  ]
}
